# Measurements reported in the supplement of paper PMC8728848.
# The list shows a part of the results.
# Tests used:
# Experiment in all cases: glycan array binding signal (z-score within array); higher = stronger binding
# Details in all cases: glycan notation: IUPAC condensed, linker removed; mutation: E227G
# [1] = biological target: Fuc(a1-2)[GalNAc(b1-3)]Gal
# Procedure, shortened: (§1)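 The binding signal is a Z-score computed within each array and averaged over linkers. Arrays of the same protein sequence at different concentrations or buffers were also averaged together. Data originate from 3228 arrays in the Consortium for Functional Glycomics database, kept only where the protein sequence was available.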
# Fuc(a1-3)GlcNAc = biological target: Fuc(a1-3)GlcNAc
# Procedure, shortened: as §1
# [2] = biological target: Fuc(a1-3)[Gal(b1-4)]Glc6S
# Procedure, shortened: as §1
# [3] = biological target: Fuc(a1-3)[Gal(b1-4)]GlcNAc
# Procedure, shortened: as §1
# [4] = biological target: Fuc(a1-3)[Gal(b1-4)]GlcNAc(b1-2)Man
# Procedure, shortened: as §1
# [5] = biological target: Fuc(a1-3)[Gal(b1-4)]GlcNAc(b1-2)Man(a1-3)[Fuc(a1-3)[Gal(b1-4)]GlcNAc(b1-2)Man(a1-6)]Man(b1-4)GlcNAc(b1-4)GlcNAc
# Procedure, shortened: as §1
# [6] = biological target: Fuc(a1-3)[Gal(b1-4)]GlcNAc(b1-2)Man(a1-3)[Fuc(a1-3)[Gal(b1-4)]GlcNAc(b1-2)Man(a1-6)]Man(b1-4)GlcNAc(b1-4)[Fuc(a1-6)]GlcNAc
# Procedure, shortened: as §1
# [7] = biological target: Fuc(a1-3)[Gal(b1-4)]GlcNAc(b1-3)Gal(b1-3)[Fuc(a1-4)]GlcNAc
# Procedure, shortened: as §1
# [8] = biological target: Fuc(a1-3)[Gal(b1-4)]GlcNAc(b1-3)Gal(b1-4)[Fuc(a1-3)]GlcNAc
# Procedure, shortened: as §1
# [9] = biological target: Fuc(a1-3)[Gal(b1-4)]GlcNAc(b1-3)Gal(b1-4)[Fuc(a1-3)]GlcNAc(b1-3)Gal(b1-4)[Fuc(a1-3)]GlcNAc
# Procedure, shortened: as §1
# [10] = biological target: Fuc(a1-3)[Gal(b1-4)]GlcNAc(b1-3)GalNAc
# Procedure, shortened: as §1
# [11] = biological target: Fuc(a1-3)[Gal(b1-4)]GlcNAc(b1-6)GalNAc
# Procedure, shortened: as §1
# [12] = biological target: Fuc(a1-3)[Gal(b1-4)]GlcNAc(b1-6)[Gal(b1-3)GlcNAc(b1-3)]Gal(b1-4)Glc
# Procedure, shortened: as §1
# [13] = biological target: Fuc(a1-3)[Gal(b1-4)]GlcNAc6S
# Procedure, shortened: as §1
# [14] = biological target: Fuc(a1-3)[Gal3S(b1-4)]Glc
# Procedure, shortened: as §1
# [15] = biological target: Fuc(a1-3)[Gal3S(b1-4)]GlcNAc
# Procedure, shortened: as §1
# [16] = biological target: Fuc(a1-3)[Gal3S(b1-4)]GlcNAc6S
# Procedure, shortened: as §1
# [17] = biological target: Fuc(a1-3)[GalNAc(b1-4)]GlcNAc
# Procedure, shortened: as §1
# [18] = biological target: Fuc(a1-3)[GalNAc(b1-4)]GlcNAc6S
# Procedure, shortened: as §1
# Fuc(a1-4)GlcNAc = biological target: Fuc(a1-4)GlcNAc
# Procedure, shortened: as §1
# Fuc(b1-3)GlcNAc = biological target: Fuc(b1-3)GlcNAc
# Procedure, shortened: as §1
# Gal(a1-2)Gal = biological target: Gal(a1-2)Gal
# Procedure, shortened: as §1
# Gal(a1-3)Gal = biological target: Gal(a1-3)Gal
# Procedure, shortened: as §1
# Gal(a1-3)Gal(b1-3)GlcNAc = biological target: Gal(a1-3)Gal(b1-3)GlcNAc
# Procedure, shortened: as §1
# [19] = biological target: Gal(a1-3)Gal(b1-3)GlcNAc(b1-2)Man
# Procedure, shortened: as §1
# [20] = biological target: Gal(a1-3)Gal(b1-3)GlcNAc(b1-2)Man(a1-3)[Gal(a1-3)Gal(b1-3)GlcNAc(b1-2)Man(a1-6)]Man(b1-4)GlcNAc(b1-4)GlcNAc
# Procedure, shortened: as §1
# [21] = biological target: Gal(a1-3)Gal(b1-3)GlcNAc(b1-3)GalNAc
# Procedure, shortened: as §1
# [22] = biological target: Gal(a1-3)Gal(b1-3)GlcNAc(b1-6)GalNAc
# Procedure, shortened: as §1
# [23] = biological target: Gal(a1-3)Gal(b1-3)[Fuc(a1-4)]GlcNAc(b1-2)Man(a1-3)[Gal(a1-3)Gal(b1-3)[Fuc(a1-4)]GlcNAc(b1-2)Man(a1-6)]Man(b1-4)GlcNAc(b1-4)GlcNAc
# Procedure, shortened: as §1
# Gal(a1-3)Gal(b1-4)Glc = biological target: Gal(a1-3)Gal(b1-4)Glc
# Procedure, shortened: as §1
binder,measurement,setting,value
"Epa1-NP-mutant-E227G (Candida glabrata), Q6VBJ0 (protein) MILNPALFLNKCVCIYTTLILLLLTNGGYATSSNDISLASKDPTTFPLGCSPDITTPKKGLSMELYSYDFRKKGSYPCWDAAYLDPNYPRTGYKSHRLLAKVDGVTGNINFYYHATKGCTPQLGHLPASYNYPKPLTMTNFTMLLYGYFRPKVTGFHTFTISADDLLFVNFGAGNAFDCCRRDSSADHFGNYQAYAIWGSKTAKDELTVHLDAGVYYPIRLFYNNRGYDGALSFTFKTESNENTVSDFSEYFFSLDDTEEGCPGLISYDSSCASVKTSKIIGIDYHTETPNENLVPITKTIYHLGIPCTGTTTTPLCGSGFYDPLANKCVTINTSSTSSVTKTTSHTTSKEVSFHSSISSQKTLIPKSIPSPYGPIKSQSIPTEMETSSEISSSEYAFSDVISTPSHSPYTKKHSSLNSSSYTSTVIHSLTSYSISQGIFSTSLSEQNITSKSSTDKFSTATSMSNNITQSSIIISQFSTNNENYTTTSMHTSSDKISTETLNNSISTTTSILFSNSSTILKNNTTIISSDKDTHYHPVNPTIVCSTNKTEIICASITQPSISNSNNHWSSSVLKFNSTTVRSTLPSSAGSNETSINVPFSSSTESNTSTSSTSTSNSKMVRSTLPSSAGSNETSISVPFSSSTESNTSTSSTSTSNSKMVRSTLPSSAGSNETSINVPFSSSTESNTSTSSTSTSNSKTVRSTPFSSAGIIMTSLSQRNNKSASSYASSNSKCYNTADSCRKVHSTPSYLLTSSYTSEGVDYDCSLVSTKLKINDTNCVNNKHTTKSCLKTSVTTTIPTLEIKTARKSSSNTIGLHSYPTSSPNKSISSAPIIGYISSFKTIKTASPSYQTSDLTTITTITSLNNPGSTAVENTHESNDKSRKTSSNDISSKHSVIKETKDAVESSNKSHQTNTLKCSSIIIASSSHNSYESLGGTTLTLTLSKVYSPQNNDTLPFLEISEVNPSRTVLPESSKMMQYLTSTEERNKTARNTIATNIVSISTFHFEGEGNAIRMGYTQLLLMLIGIIVMNIGT",glycan array binding signal (z-score),[1],-0.22
same,glycan array binding signal (z-score),Fuc(a1-3)GlcNAc,-0.077
same,glycan array binding signal (z-score),[2],-0.073
same,glycan array binding signal (z-score),[3],-0.217
same,glycan array binding signal (z-score),[4],-0.202
same,glycan array binding signal (z-score),[5],-0.137
same,glycan array binding signal (z-score),[6],-0.005
same,glycan array binding signal (z-score),[7],-0.062
same,glycan array binding signal (z-score),[8],-0.147
same,glycan array binding signal (z-score),[9],-0.246
same,glycan array binding signal (z-score),[10],-0.025
same,glycan array binding signal (z-score),[11],-0.301
same,glycan array binding signal (z-score),[12],-0.126
same,glycan array binding signal (z-score),[13],0.185
same,glycan array binding signal (z-score),[14],-0.16
same,glycan array binding signal (z-score),[15],-0.159
same,glycan array binding signal (z-score),[16],0.024
same,glycan array binding signal (z-score),[17],-0.131
same,glycan array binding signal (z-score),[18],-0.197
same,glycan array binding signal (z-score),Fuc(a1-4)GlcNAc,-0.279
same,glycan array binding signal (z-score),Fuc(b1-3)GlcNAc,-0.119
same,glycan array binding signal (z-score),Gal(a1-2)Gal,-0.274
same,glycan array binding signal (z-score),Gal(a1-3)Gal,-0.054
same,glycan array binding signal (z-score),Gal(a1-3)Gal(b1-3)GlcNAc,-0.236
same,glycan array binding signal (z-score),[19],-0.184
same,glycan array binding signal (z-score),[20],0.258
same,glycan array binding signal (z-score),[21],-0.05
same,glycan array binding signal (z-score),[22],-0.046
same,glycan array binding signal (z-score),[23],0.128
same,glycan array binding signal (z-score),Gal(a1-3)Gal(b1-4)Glc,-0.127
